Experiment [1] addresses T1, VH1-… Kinase (VIK) in pGBKT7 (BD-VIK) (Arabidopsis) (UniProt Q9XI87).
T1 sequence: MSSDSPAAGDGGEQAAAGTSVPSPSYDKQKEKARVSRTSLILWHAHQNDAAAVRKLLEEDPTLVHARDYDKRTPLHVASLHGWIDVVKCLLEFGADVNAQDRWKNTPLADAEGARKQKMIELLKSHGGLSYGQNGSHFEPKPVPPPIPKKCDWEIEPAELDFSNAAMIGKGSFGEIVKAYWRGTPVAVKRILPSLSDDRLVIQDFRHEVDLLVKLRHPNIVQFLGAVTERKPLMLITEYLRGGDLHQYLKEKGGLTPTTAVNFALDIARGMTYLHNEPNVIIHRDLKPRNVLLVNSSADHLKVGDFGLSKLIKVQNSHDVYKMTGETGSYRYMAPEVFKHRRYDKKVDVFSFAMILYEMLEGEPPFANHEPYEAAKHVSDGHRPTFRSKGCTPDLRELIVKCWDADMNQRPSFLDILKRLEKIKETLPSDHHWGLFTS
Description: two-hybrid; pGADT7 (AD) and pGBKT7 (BD) fusions in AH109 yeast; growth on SD/-Leu/-Trp/-His or SD/-Leu/-Trp/-His/-Ade; autoactivation inhibited by 3-AT (25 mM for VIK-ERF13).

Chains of the proteins cited; added tags and fusions are not shown.
UniProt Q8L9K1: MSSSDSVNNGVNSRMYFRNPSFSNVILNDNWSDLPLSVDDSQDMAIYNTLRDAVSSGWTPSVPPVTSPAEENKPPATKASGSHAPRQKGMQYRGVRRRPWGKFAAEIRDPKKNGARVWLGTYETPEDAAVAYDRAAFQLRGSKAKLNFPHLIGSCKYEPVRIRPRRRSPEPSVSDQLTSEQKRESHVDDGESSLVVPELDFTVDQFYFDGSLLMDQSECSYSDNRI

The next experiment has as its target T2, cLUC-VIK (Arabidopsis) (UniProt Q9XI87).
T2 sequence: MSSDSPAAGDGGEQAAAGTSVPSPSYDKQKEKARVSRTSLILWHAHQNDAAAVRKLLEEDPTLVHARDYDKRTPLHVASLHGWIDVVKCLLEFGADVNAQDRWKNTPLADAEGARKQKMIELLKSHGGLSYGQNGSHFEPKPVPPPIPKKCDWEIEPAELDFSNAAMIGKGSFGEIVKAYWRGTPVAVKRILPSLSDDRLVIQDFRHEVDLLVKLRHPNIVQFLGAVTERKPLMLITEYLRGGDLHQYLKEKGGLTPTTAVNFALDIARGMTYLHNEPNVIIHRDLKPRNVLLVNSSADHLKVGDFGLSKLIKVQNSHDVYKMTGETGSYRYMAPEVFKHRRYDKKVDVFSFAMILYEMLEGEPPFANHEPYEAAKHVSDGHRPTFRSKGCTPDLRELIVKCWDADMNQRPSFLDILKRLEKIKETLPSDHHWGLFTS
Description: split reporter; luciferase complementation imaging (LCI): nLUC and cLUC fusions co-transformed by Agrobacterium GV3101 into N. benthamiana leaves; 24 h dark, 48 h light; D-luciferin; VIK-VIK also with co-expressed 35S::ERF13, ERF13 2A or ERF13 2D.

For experiment [2], the target named is Ethylene Responsive Factor 13 (ERF13) fused to the binding domain (BD-ERF13) (Arabidopsis) (UniProt Q8L9K1). Description: two-hybrid; pGADT7 (AD) and pGBKT7 (BD) fusions in AH109 yeast; growth on SD/-Leu/-Trp/-His or SD/-Leu/-Trp/-His/-Ade; autoactivation inhibited by 3-AT (25 mM for VIK-ERF13).
Another experiment concerns the target cLUC-ERF13 (Arabidopsis) (UniProt Q8L9K1). Description: split reporter; luciferase complementation imaging (LCI): nLUC and cLUC fusions co-transformed by Agrobacterium GV3101 into N. benthamiana leaves; 24 h dark, 48 h light; D-luciferin; VIK-VIK also with co-expressed 35S::ERF13, ERF13 2A or ERF13 2D.
For another experiment, the target named is cYFP-ERF13 (Arabidopsis) (UniProt Q8L9K1). Description: split reporter; BiFC: nYFP and cYFP fusions co-transformed into Arabidopsis mesophyll protoplasts; confocal microscopy.
The next experiment has as its target ERF13-Myc (Arabidopsis) (UniProt Q8L9K1). Description: co-IP; ERF13-Myc and YFP-VIK co-expressed in Arabidopsis mesophyll protoplasts; NP-40 lysis buffer; Myc-Trap agarose beads, 4 °C, 2 h; washed with 10 mM Tris-HCl pH 7.5, 150 mM NaCl, 0.5 mM EDTA; blot with anti-GFP and anti-Myc.
In the next experiment the target is T3, cYFP-LBD18 (Arabidopsis) (UniProt O22131).
T3 sequence: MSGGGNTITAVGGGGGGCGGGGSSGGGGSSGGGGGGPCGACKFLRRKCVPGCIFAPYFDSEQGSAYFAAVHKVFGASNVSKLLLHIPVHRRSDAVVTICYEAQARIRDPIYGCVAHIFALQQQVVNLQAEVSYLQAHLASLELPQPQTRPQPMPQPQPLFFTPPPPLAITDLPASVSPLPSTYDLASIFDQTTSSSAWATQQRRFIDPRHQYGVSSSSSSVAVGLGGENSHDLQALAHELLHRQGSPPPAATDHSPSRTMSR
Description: split reporter; BiFC: nYFP and cYFP fusions co-expressed in leaf cells of N. benthamiana; confocal microscopy.

No constants are given. Whether binding was seen depends on the method and setting. For part of these data: In cells and extracts the contact can be indirect. Some entries that bind do so weakly or less than the wild type. Where a sequence is shown, tags or fusion partners need not be part of it.

B1: MPK14 in pGADT7 (AD-MPK14) (enzyme, UniProt O23236 1-361)
chain: MAMLVDPPNGIRQEGKHYYTMWQTLFEIDTKYVPIKPIGRGAYGVVCSSINSETNERVAIKKIHNVFENRIDALRTLRELKLLRHVRHENVISLKDVMLPTHRYSFRDVYLVYELMDSDLNQIIKSSQSLSDDHCKYFLFQLLRGLKYLHSANILHRDLKPGNLLVNANCDLKICDFGLARTYEQFMTEYVVTRWYRAPELLLCCDNYGTSIDVWSVGCIFAEILGRKPIFPGTECLNQLKLIINVVGSQQDWDLQFIDNQKARRFIKSLPFSKGTHFSHIYPHANPLAIDLLQRMLVFDPTKRISVSDALLHPYMEGLLEPECNPSENVPVSSLEIDENMEGDMIREMMWEEMLHYLPRA
On to B1, for which, in experiment [1], the binding entry was “no binding”.

B2: TMK1-nLUC (receptor, UniProt P43298 24-942)
chain: DSDGDLSAMLSLKKSLNPPSSFGWSDPDPCKWTHIVCTGTKRVTRIQIGHSGLQGTLSPDLRNLSELERLELQWNNISGPVPSLSGLASLQVLMLSNNNFDSIPSDVFQGLTSLQSVEIDNNPFKSWEIPESLRNASALQNFSANSANVSGSLPGFLGPDEFPGLSILHLAFNNLEGELPMSLAGSQVQSLWLNGQKLTGDITVLQNMTGLKEVWLHSNKFSGPLPDFSGLKELESLSLRDNSFTGPVPASLLSLESLKVVNLTNNHLQGPVPVFKSSVSVDLDKDSNSFCLSSPGECDPRVKSLLLIASSFDYPPRLAESWKGNDPCTNWIGIACSNGNITVISLEKMELTGTISPEFGAIKSLQRIILGINNLTGMIPQELTTLPNLKTLDVSSNKLFGKVPGFRSNVVVNTNGNPDIGKDKSSLSSPGSSSPSGGSGSGINGDKDRRGMKSSTFIGIIVGSVLGGLLSIFLIGLLVFCWYKKRQKRFSGSESSNAVVVHPRHSGSDNESVKITVAGSSVSVGGISDTYTLPGTSEVGDNIQMVEAGNMLISIQVLRSVTNNFSSDNILGSGGFGVVYKGELHDGTKIAVKRMENGVIAGKGFAEFKSEIAVLTKVRHRHLVTLLGYCLDGNEKLLVYEYMPQGTLSRHLFEWSEEGLKPLLWKQRLTLALDVARGVEYLHGLAHQSFIHRDLKPSNILLGDDMRAKVADFGLVRLAPEGKGSIETRIAGTFGYLAPEYAVTGRVTTKVDVYSFGVILMELITGRKSLDESQPEESIHLVSWFKRMYINKEASFKKAIDTTIDLDEETLASVHTVAELAGHCCAREPYQRPDMGHAVNILSSLVELWKPSDQNPEDIYGIDLDMSLPQALKKWQAYEGRSDLESSTSSLLPSLDNTQMSIPTRPYGFAESFTSVDGR
For the molecule B2, in the experiment with cLUC-VIK (Arabidopsis), the binding result was “binds”.

B3: VH1-… Kinase (VIK) fused to the activation domain (AD-VIK) (enzyme, UniProt Q9XI87 1-438)
chain: MSSDSPAAGDGGEQAAAGTSVPSPSYDKQKEKARVSRTSLILWHAHQNDAAAVRKLLEEDPTLVHARDYDKRTPLHVASLHGWIDVVKCLLEFGADVNAQDRWKNTPLADAEGARKQKMIELLKSHGGLSYGQNGSHFEPKPVPPPIPKKCDWEIEPAELDFSNAAMIGKGSFGEIVKAYWRGTPVAVKRILPSLSDDRLVIQDFRHEVDLLVKLRHPNIVQFLGAVTERKPLMLITEYLRGGDLHQYLKEKGGLTPTTAVNFALDIARGMTYLHNEPNVIIHRDLKPRNVLLVNSSADHLKVGDFGLSKLIKVQNSHDVYKMTGETGSYRYMAPEVFKHRRYDKKVDVFSFAMILYEMLEGEPPFANHEPYEAAKHVSDGHRPTFRSKGCTPDLRELIVKCWDADMNQRPSFLDILKRLEKIKETLPSDHHWGLFTS
As for B3, the binding entry in experiment [1] and in experiment [2] was “binds” in each case.

B4: VIK-nLUC (enzyme, UniProt Q9XI87 1-438)
chain: MSSDSPAAGDGGEQAAAGTSVPSPSYDKQKEKARVSRTSLILWHAHQNDAAAVRKLLEEDPTLVHARDYDKRTPLHVASLHGWIDVVKCLLEFGADVNAQDRWKNTPLADAEGARKQKMIELLKSHGGLSYGQNGSHFEPKPVPPPIPKKCDWEIEPAELDFSNAAMIGKGSFGEIVKAYWRGTPVAVKRILPSLSDDRLVIQDFRHEVDLLVKLRHPNIVQFLGAVTERKPLMLITEYLRGGDLHQYLKEKGGLTPTTAVNFALDIARGMTYLHNEPNVIIHRDLKPRNVLLVNSSADHLKVGDFGLSKLIKVQNSHDVYKMTGETGSYRYMAPEVFKHRRYDKKVDVFSFAMILYEMLEGEPPFANHEPYEAAKHVSDGHRPTFRSKGCTPDLRELIVKCWDADMNQRPSFLDILKRLEKIKETLPSDHHWGLFTS
Regarding B4, the binding result with cLUC-VIK (Arabidopsis) and with cLUC-ERF13 (Arabidopsis) was “binds” in each case.

B5: nYFP-VIK (in Arabidopsis protoplasts) (enzyme, UniProt Q9XI87 1-438)
chain: MSSDSPAAGDGGEQAAAGTSVPSPSYDKQKEKARVSRTSLILWHAHQNDAAAVRKLLEEDPTLVHARDYDKRTPLHVASLHGWIDVVKCLLEFGADVNAQDRWKNTPLADAEGARKQKMIELLKSHGGLSYGQNGSHFEPKPVPPPIPKKCDWEIEPAELDFSNAAMIGKGSFGEIVKAYWRGTPVAVKRILPSLSDDRLVIQDFRHEVDLLVKLRHPNIVQFLGAVTERKPLMLITEYLRGGDLHQYLKEKGGLTPTTAVNFALDIARGMTYLHNEPNVIIHRDLKPRNVLLVNSSADHLKVGDFGLSKLIKVQNSHDVYKMTGETGSYRYMAPEVFKHRRYDKKVDVFSFAMILYEMLEGEPPFANHEPYEAAKHVSDGHRPTFRSKGCTPDLRELIVKCWDADMNQRPSFLDILKRLEKIKETLPSDHHWGLFTS
With B5, the binding entry with cYFP-ERF13 (Arabidopsis) is reported as “binds”.

B6: YFP-VIK (enzyme, UniProt Q9XI87 1-438)
chain: MSSDSPAAGDGGEQAAAGTSVPSPSYDKQKEKARVSRTSLILWHAHQNDAAAVRKLLEEDPTLVHARDYDKRTPLHVASLHGWIDVVKCLLEFGADVNAQDRWKNTPLADAEGARKQKMIELLKSHGGLSYGQNGSHFEPKPVPPPIPKKCDWEIEPAELDFSNAAMIGKGSFGEIVKAYWRGTPVAVKRILPSLSDDRLVIQDFRHEVDLLVKLRHPNIVQFLGAVTERKPLMLITEYLRGGDLHQYLKEKGGLTPTTAVNFALDIARGMTYLHNEPNVIIHRDLKPRNVLLVNSSADHLKVGDFGLSKLIKVQNSHDVYKMTGETGSYRYMAPEVFKHRRYDKKVDVFSFAMILYEMLEGEPPFANHEPYEAAKHVSDGHRPTFRSKGCTPDLRELIVKCWDADMNQRPSFLDILKRLEKIKETLPSDHHWGLFTS
On to B6, for which the binding entry with ERF13-Myc (Arabidopsis) is given as “binds”.

B7: nYFP-VIK (in N. benthamiana leaves) (enzyme, UniProt Q9XI87 1-438)
chain: MSSDSPAAGDGGEQAAAGTSVPSPSYDKQKEKARVSRTSLILWHAHQNDAAAVRKLLEEDPTLVHARDYDKRTPLHVASLHGWIDVVKCLLEFGADVNAQDRWKNTPLADAEGARKQKMIELLKSHGGLSYGQNGSHFEPKPVPPPIPKKCDWEIEPAELDFSNAAMIGKGSFGEIVKAYWRGTPVAVKRILPSLSDDRLVIQDFRHEVDLLVKLRHPNIVQFLGAVTERKPLMLITEYLRGGDLHQYLKEKGGLTPTTAVNFALDIARGMTYLHNEPNVIIHRDLKPRNVLLVNSSADHLKVGDFGLSKLIKVQNSHDVYKMTGETGSYRYMAPEVFKHRRYDKKVDVFSFAMILYEMLEGEPPFANHEPYEAAKHVSDGHRPTFRSKGCTPDLRELIVKCWDADMNQRPSFLDILKRLEKIKETLPSDHHWGLFTS
B7: the binding entry with cYFP-LBD18 (Arabidopsis) is on record as “binds”.

(Values after article PMC11434109, “VIK‐Mediated Auxin Signaling Regulates Lateral Root Development in Arabidopsis” (Advanced Science, 2024).)
